The text below walks through data of paper PMC6919601, “Identification of Plasmodium dipeptidyl aminopeptidase allosteric inhibitors by high throughput screening” (PLoS ONE, 2019).

Screen size: about 110,000 compounds; about 230 (0.21%) showed an effect of 50% or more. This is one part of the list.
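Also: 30 min substrate incubation versus DMSO and 10 µM JCP410 controls.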

For the assay, the target named is DPAP1 (Plasmodium falciparum, UniProt Q8IIJ9). Kind of assay: primary screen, percent inhibition; read by cleavage of a fluorogenic dipeptide substrate; higher = more effect of the substance. On the set-up: species or system P. falciparum D10 trophozoite lysates; single well.
DPAP1, sequence (Q8IIJ9 whole entry, looked up): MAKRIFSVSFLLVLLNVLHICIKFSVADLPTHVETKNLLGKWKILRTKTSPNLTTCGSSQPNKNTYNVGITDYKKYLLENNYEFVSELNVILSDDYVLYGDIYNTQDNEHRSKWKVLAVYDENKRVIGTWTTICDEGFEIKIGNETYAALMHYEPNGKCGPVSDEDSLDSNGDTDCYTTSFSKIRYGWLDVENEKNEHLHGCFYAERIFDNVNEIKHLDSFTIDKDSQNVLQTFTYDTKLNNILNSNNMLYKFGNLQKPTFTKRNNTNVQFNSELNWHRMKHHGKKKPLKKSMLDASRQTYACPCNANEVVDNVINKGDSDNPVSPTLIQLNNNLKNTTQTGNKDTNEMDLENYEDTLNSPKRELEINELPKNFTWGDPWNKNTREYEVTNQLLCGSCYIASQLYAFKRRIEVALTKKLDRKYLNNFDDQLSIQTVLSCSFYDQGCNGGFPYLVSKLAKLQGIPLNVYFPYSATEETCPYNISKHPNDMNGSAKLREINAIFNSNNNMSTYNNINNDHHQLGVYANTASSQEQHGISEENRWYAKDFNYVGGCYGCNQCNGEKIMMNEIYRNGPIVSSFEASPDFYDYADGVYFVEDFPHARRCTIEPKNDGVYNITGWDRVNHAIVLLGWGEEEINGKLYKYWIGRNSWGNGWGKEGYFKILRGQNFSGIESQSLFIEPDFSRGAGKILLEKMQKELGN
As to `COC(=O)c1ccn(CC(=O)NC2CCCCC2)n1`, the “% Inhibition @ 10 uM” value is 5.45%.
Under `N#CCNC(=O)C1(NC(=O)N2CCN(c3ncccn3)CC2)CCCCC1` stands -1.41%; under `COCCNC(=O)/C(C#N)=C/c1c(Oc2ccc(C(C)(C)C)cc2)nc2c(C)cccn2c1=O`, 2%; under `CCc1ccc(CNCc2c(C(=O)O)n(Cc3ccccc3)c3cc(C)ccc23)cc1`, 6.42%.
As to `O=C(O)c1ccc(N2C(=O)c3ccc(Oc4ccc([N+](=O)[O-])cc4)cc3C2=O)cc1`, the “% Inhibition @ 10 uM” value is recorded as -1.77%.
With `N=c1c(C(=O)NCc2ccco2)cc2c(=O)n3ccccc3nc2n1CCN1CCOCC1` the figure was 6.7%; with `Cc1ccc(-c2cc(C(F)(F)F)n3ncc(C(=O)N4CCN(Cc5ccccc5)CC4)c3n2)cc1`, 4.86%; with `COc1ccc2cc3cc(C(=O)N4CCN(C5CCCCC5)CC4)oc3nc2c1`, 1.9%.
As to `COc1cccc2c(O)c(NC(=O)N3CCN(C(=O)c4ccco4)CC3)cnc12`, the “% Inhibition @ 10 uM” value is on record as -4.54%.
In the case of `CCOc1ccc(NS(=O)(=O)c2ccc(NC(C)=O)cc2)cc1`, the “% Inhibition @ 10 uM” value was determined as 2.4%.
For `Cc1ccccc1COC(=O)N[C@@H](CC(C)C)C(=O)NCC#N`, the “% Inhibition @ 10 uM” value was -6.68%.
In the case of `Cc1ccc(CCNC(=O)CCS(=O)(=O)Cc2ccc(C)cc2)cc1`, the “% Inhibition @ 10 uM” value is reported as -1.21%.
For `Cc1cccc(COc2ccc(Br)cc2/C=C2/NC(=O)NC2=O)c1`, the “% Inhibition @ 10 uM” value came out at 3.8%.
Consider `CCCCN(Cc1ccccc1)Cc1cccc(Oc2ccc(Cl)cc2)c1`, for which the “% Inhibition @ 10 uM” value is reported as -7.34%.
On to `O=CNC(=O)c1ccccc1C(=O)O`, for which the “% Inhibition @ 10 uM” value was -2.27%.
In the case of `Cc1cccc(OCc2nnc(NC(=O)C(F)(F)F)s2)c1C`, the “% Inhibition @ 10 uM” value is on record as -1.93%.
Consider `COC(=O)/C(C#N)=C/c1c(Oc2cccc(C)c2C)nc2ccccn2c1=O`, for which the “% Inhibition @ 10 uM” value was -5.1%.
Take `CCn1c(=O)c(C(=O)Nc2ccccc2C)c(O)c2ccccc21`: the “% Inhibition @ 10 uM” value was 1.83%.
With `COc1ccc2oc(C(=O)c3ccccc3)c(NC(=O)CCCN3C(=O)c4ccccc4C3=O)c2c1` the figure was 2.7%.
Consider `O=C(CSc1nnc(-c2ccc(Cl)cc2)o1)N1CCOCC1`, for which the “% Inhibition @ 10 uM” value is recorded as 6.13%.
Under `O=C(c1ccccc1Cl)n1nc(-c2ccco2)nc1NCc1ccccc1` stands -3.24%; under `C=CCCC(C)(O)C#CCN(CC)CC` (stereo not drawn), -0.736%; under `CS(=O)(=O)N1CCN(c2ccc(NC(=O)c3ccc(C#N)cc3F)cc2)CC1`, -6.02%.
With `CCCCN(C)C(=S)Nc1c(C(=O)OCC)[nH]c2ccc(OC)cc12` the figure was -3.13%; with `COc1ccc(N(Cc2ccc(F)cc2)C(=O)COc2ccc3ccccc3c2)cc1`, -2.03%; with `CCc1ccccc1NC(=O)CN(c1ccc(C)c(Cl)c1)S(C)(=O)=O`, -1.43%.
On to `Nc1nc(-c2ccccc2)c(C(=O)Nc2ccc(Cl)cc2)s1`, for which the “% Inhibition @ 10 uM” value is recorded as 1.24%.
With `Cc1ccc(CNC(=O)CSc2nc3nccnc3c(=O)n2Cc2cccs2)cc1`, the “% Inhibition @ 10 uM” value is -0.659%.
As to `Cc1ccc(-c2nc(O)nc(-c3ccc(C)cc3)n2)cc1`, the “% Inhibition @ 10 uM” value is 3.25%.
As for `Cc1ccc(C(=O)Nc2ccc(C(C)C)cc2)cc1`, the “% Inhibition @ 10 uM” value was -1.25%.
Regarding `O=C(Nc1cccc(NC(=O)c2ccccc2F)n1)c1ccccc1F`, the “% Inhibition @ 10 uM” value was 4.81%.
Regarding `CC(C)C(NS(=O)(=O)c1cccs1)C(=O)Nc1nc(C(C)(C)C)cs1` (stereo not drawn), the “% Inhibition @ 10 uM” value is -3.44%.
Under `Cc1noc(C(=O)Nc2cccnc2)c1Cl` stands -3.45%; under `CCc1ccc(CNC(=O)CCC(=O)n2ncc3cc(Cl)ccc32)cc1`, -4.68%; under `CCn1cc(Br)c(C(=O)Nc2ccccc2C(C)(C)C)n1`, -0.67%.
For `COc1ccccc1C1C2=C(O)CCCC2=NC(C)=C1C(=O)Nc1ccc(Br)cn1` (stereo not drawn), the “% Inhibition @ 10 uM” value turned out to be 1.4%.
Turning to `Cc1ccc(S(=O)(=O)NC(C(=O)Oc2ccc([N+](=O)[O-])cc2)C(C)C)cc1` (stereo not drawn), the “% Inhibition @ 10 uM” value was 17%.
Take `O=S1(=O)N=C(Nc2ccccc2)c2ccccc21`: the “% Inhibition @ 10 uM” value is -1.5%.
`CC1CN(C(=O)c2ccccc2)CCC1(O)c1ccccc1` (stereo not drawn): the “% Inhibition @ 10 uM” value was -1.07%.
Turning to `CCN1C(=O)/C(=C\c2ccc(OC)cc2OC)S/C1=N/c1ccccc1`, the “% Inhibition @ 10 uM” value is -2.92%.
For `O=C(c1ccco1)N1CCN(Cc2cccc(Br)c2)CC1`, the “% Inhibition @ 10 uM” value is -2.37%.
As for `Fc1cccc(CN2CCN(Cc3ccccc3)CC2)c1`, the “% Inhibition @ 10 uM” value was -1.77%.
On to `Cc1ccc2c(c1)c1c3n2CCN(C(=O)CN2CCOCC2)C3CCC1` (stereo not drawn), for which the “% Inhibition @ 10 uM” value was -2.63%.
Regarding `Brc1ccc(CN2CCC(Cc3ccccc3)CC2)o1`, the “% Inhibition @ 10 uM” value is -4.5%.
With `COCCCNC(=O)C1CCN(S(=O)(=O)c2ccc(Cl)cc2)CC1`, the “% Inhibition @ 10 uM” value is reported as -3.74%.
With `C=CCn1c(SCC(=O)NCCCO)nc2sc3c(c2c1=O)CCCC3` the figure was -0.725%; with `CC(C)CCN1C(=O)c2ccc(C(=O)Nc3ccc4c(c3)OCO4)cc2C1=O`, 3.5%.
Take `COc1ccc2c(Sc3ccccc3)c(C(=O)NCc3cccnc3)[nH]c2c1`: the “% Inhibition @ 10 uM” value is 12%.
Under `Cc1nc(SCC(=O)Nc2sc3c(c2C#N)CCCC3)[nH]c1CC(C)C` stands -0.92%.
Take `Cc1ccc(NCN2C(=O)c3ccccc3C2=O)cc1Cl`: the “% Inhibition @ 10 uM” value amounted to 1.52%.
Under `CCc1nc2ccccc2c(NC(=O)CNCCc2ccc(O)cc2)c1C` stands -0.216%.
As to `CCCNC(=O)c1nn2c(C(F)(F)F)cc(-c3ccco3)nc2c1Br`, the “% Inhibition @ 10 uM” value is on record as -0.132%.
`O=C(COCc1cc(-c2cccs2)on1)NC1CCCC1`: the “% Inhibition @ 10 uM” value is listed as -1.04%.
Turning to `COC(=O)C(NS(=O)(=O)c1ccc([N+](=O)[O-])cc1)c1ccccc1` (stereo not drawn), the “% Inhibition @ 10 uM” value was -1.96%.
On to `CCCN(CCC)CCCNC(=O)CCNS(=O)(=O)c1ccc(Br)cc1`, for which the “% Inhibition @ 10 uM” value is listed as -0.519%.
For `COc1ccc2nc(NC(=O)C3CCN(S(=O)(=O)c4c(C)n[nH]c4C)CC3)sc2c1`, the “% Inhibition @ 10 uM” value is listed as -2.41%.
With `CCC(Cc1ccccc1)NS(=O)(=O)c1c(C)nc2scc(C)n2c1=O` (stereo not drawn), the “% Inhibition @ 10 uM” value is -5.67%.
Take `CCCCNC(=O)Cn1c(=O)cc(C(F)(F)F)c2c(C)nn(-c3cccc(Cl)c3C)c21`: the “% Inhibition @ 10 uM” value was -3.6%.
With `CC1=CC(=C2C(=O)c3ccccc3C2=O)C=C(C)O1` the figure was 2.03%; with `CCN1CCN(Cc2ccc(-c3ccccc3)cc2)CC1`, -3.71%.
For `CCOC(=O)C1CCCCN1C1CCC(c2ccccc2)CC1` (stereo not drawn), the “% Inhibition @ 10 uM” value stood at 5.01%.
With `N#CCCCCn1c(-c2cncs2)nc2ccccc21` the figure was -0.759%; with `Cc1cccc2c1Oc1nc(-c3ccccc3O)nc(O)c1C2`, 3.92%.
